Data taken from article PMC6549186 (Nature Communications, 2019).

Biological target: the molecule itself
Test: crystal structure; EBP with U18666A (3.2 Å) or tamoxifen (3.5 Å); space group P2(1)2(1)2; hanging drop, 20 °C; each asymmetric unit contains one dimer and one monomer

B1: human EBP (3-β-hydroxysteroid-Δ8,Δ7-isomerase, Emopamil-Binding Protein), N-terminal Strep-tag, crystallised (enzyme)
chain: not shown
notes: residues 1-6, 53-59 and 220-230 were not visible in the electron density map; Crystallised with 10 uM U18666A or tamoxifen added in all purification steps; Selenomethionine-labelled protein was used for phasing; also called Strep-EBP; human sterol isomerase; source: HEK-293S GnTI- cells, baculovirus-mediated transduction, purified (Strep-Tactin, Superdex 200 Increase)
- stoichiometry N: 2
